Measurements from PubChem BioAssay AID485281 (National Center for Advancing Translational Sciences (NCATS), 2010).
The campaign covered roughly 350,000 compounds. About 260 (0.074%) were called active. The shares of active, inactive and inconclusive entries below differ from those in the screen. The call rests on the fitted dose curve; in most records, active means well fitted inhibition curve with a large enough effect; inconclusive means small, poorly fitted or top-dose-only effect; inactive means no such curve, though single readings can be large or run the other way. Where the call is inconclusive, the potency comes from a doubtful curve fit.

Target: Ferritin light chain (Equus caballus) (UniProt P02791)
Experiment: qHTS Assay for Identification of Novel General Anesthetics; further: nearly all actives have a fitted effect of over 20% in size
Settings: apoferritin/1-aminoanthracene competitive binding, fluorescence; series mostly up to 77.5 µM
In short: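 Horse-spleen apoferritin (10 uM) in 50% saturated 1-aminoanthracene in PBS was incubated 10 min at room temperature with compound. Fluorescence (ex 380, em 535 nm) was normalized to free and bound 1-AMA, with concentration-response fitted by a four-parameter Hill equation.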
Potency means the concentration at half of the fitted maximal effect; tags describe the fitted curve by direction and shape.

UniProt P02791, sequence (P02791 whole entry, looked up): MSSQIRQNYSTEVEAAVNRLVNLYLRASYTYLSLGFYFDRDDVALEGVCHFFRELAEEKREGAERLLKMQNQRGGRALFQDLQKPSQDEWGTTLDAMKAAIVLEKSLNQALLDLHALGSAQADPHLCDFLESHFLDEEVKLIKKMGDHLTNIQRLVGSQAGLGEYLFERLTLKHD

Potency, inconclusive:
Cc1cc(C(=O)NC2CCCc3c2cnn3-c2cccc(C)c2C)c(C)o1 (centres undefined) 22.4 µM [inhibitor, partial curve], Fc1c(F)c(F)c(N/N=C/c2c[nH]c3ccccc23)c(F)c1F 14.1 µM [inhibitor, partial curve], CN(C(=O)C1=CC(c2ccc3c(c2)OCO3)=NS(=O)(=O)N1C)c1ccccc1 35.5 µM [inhibitor, single point], COc1ccc(NC(=O)COC(=O)CNC(=O)C2CCCCC2)cc1 35.5 µM [inhibitor, partial curve], Cc1c(/C=N/NC(=O)CNc2ccccc2)c2ccccn2c1C(=O)c1ccncc1 25.1 µM [inhibitor, partial curve], Cc1cccc(NCC(=O)N/N=C\c2c[nH]c3ccccc23)c1 25.1 µM [inhibitor, partial curve], CCC(Cn1nnc2ccccc2c1=O)NC(=O)Nc1ccc(C)c(C)c1 (centres undefined) 39.8 µM [inhibitor, partial curve, poor fit], Cc1cc(C)c(S(=O)(=O)c2ccc(C(C)(C)C)cc2)c(Cl)n1 25.1 µM [inhibitor, partial curve], CC1CCCN(C(=O)c2cc3c(Cl)nc4ccccc4c3s2)C1 (centres undefined) 56.2 µM [inhibitor, partial curve], O=C(CCc1nnc(CCCCc2ccccc2)o1)N(CCO)Cc1ccccc1 14.1 µM [inhibitor, partial curve], COc1ccccc1NS(=O)(=O)c1cccc(C(=O)N/N=C(\C)c2ccc3c(c2)OCCO3)c1 12.6 µM [inhibitor, partial curve], CCCCCCCCCC(=O)OCC(O)CO (centres undefined) 20 µM [inhibitor, partial curve], COc1ccc(NC(=O)c2c(NC(=O)CNCC(C)C)sc3c2CCC3)c(OC)c1 28.2 µM [inhibitor, partial curve], Cn1c(=O)n(Cc2ccc(F)cc2)c(=O)c2c1nc1n2CCN1Cc1ccco1 35.5 µM [inhibitor, partial curve]

Potency, inactive:
CCn1cc(/C=C(\NC(=O)c2ccc(C)cc2)C(=O)NCCCN2CCOCC2)c2ccccc21, CCc1n[nH]c(=S)n1/N=C/c1ccc(NC(C)=O)cc1, COc1cccc(NC(=O)CC(=O)c2ccc([N+](=O)[O-])cc2)c1, O=C(CCN1CCN(c2ccccc2)CC1)NNC(=S)Nc1ccccc1Cl, CCCCc1cc(=O)oc2c(C)c(OCC(=O)N3CCCC3)ccc12
